Source: the supplement of paper PMC8728848
This is one part of the list.

Legend:
Assay in all cases: glycan array binding signal (z-score within array); higher = stronger binding
Settings in all cases: glycan notation: IUPAC condensed, linker removed
[1] = biological target: Fuc(a1-2)[GalNAc(a1-3)]Gal(b1-3)GlcNAc(b1-6)GalNAc
Summary of the method: (§1)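 Negative Z-scores can be read as non-binding. The Z-score is calculated within each array and then averaged across arrays of one protein sequence at different concentrations or buffers and across linkers. Arrays, 3228 in all, were curated from the Consortium for Functional Glycomics database and kept only where the protein sequence was available.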

[2] = biological target: Fuc(a1-2)[GalNAc(a1-3)]Gal(b1-4)Glc
Summary of the method: as §1

[3] = biological target: Fuc(a1-2)[GalNAc(a1-3)]Gal(b1-4)GlcNAc
Summary of the method: as §1

[4] = biological target: Fuc(a1-2)[GalNAc(a1-3)]Gal(b1-4)GlcNAc(b1-2)Man
Summary of the method: as §1

[5] = biological target: Fuc(a1-2)[GalNAc(a1-3)]Gal(b1-4)GlcNAc(b1-2)Man(a1-3)[Fuc(a1-2)[GalNAc(a1-3)]Gal(b1-4)GlcNAc(b1-2)Man(a1-6)]Man(b1-4)GlcNAc(b1-4)GlcNAc
Summary of the method: as §1

[6] = biological target: Fuc(a1-2)[GalNAc(a1-3)]Gal(b1-4)GlcNAc(b1-2)Man(a1-3)[Fuc(a1-2)[GalNAc(a1-3)]Gal(b1-4)GlcNAc(b1-2)Man(a1-6)]Man(b1-4)GlcNAc(b1-4)[Fuc(a1-6)]GlcNAc
Summary of the method: as §1

[7] = biological target: Fuc(a1-2)[GalNAc(a1-3)]Gal(b1-4)GlcNAc(b1-3)Gal(b1-4)GlcNAc
Summary of the method: as §1

[8] = biological target: Fuc(a1-2)[GalNAc(a1-3)]Gal(b1-4)GlcNAc(b1-3)Gal(b1-4)GlcNAc(b1-3)Gal(b1-4)GlcNAc
Summary of the method: as §1

[9] = biological target: Fuc(a1-2)[GalNAc(a1-3)]Gal(b1-4)GlcNAc(b1-3)GalNAc
Summary of the method: as §1

[10] = biological target: Fuc(a1-2)[GalNAc(a1-3)]Gal(b1-4)GlcNAc(b1-3)[Fuc(a1-2)[GalNAc(a1-3)]Gal(b1-4)GlcNAc(b1-6)]GalNAc
Summary of the method: as §1

[11] = biological target: Fuc(a1-2)[GalNAc(a1-3)]Gal(b1-4)GlcNAc(b1-6)GalNAc
Summary of the method: as §1

[12] = biological target: Fuc(a1-2)[GalNAc(a1-3)]Gal(b1-4)[Fuc(a1-3)]GlcNAc
Summary of the method: as §1

[13] = biological target: Fuc(a1-2)[GalNAc(a1-3)]Gal(b1-4)[Fuc(a1-3)]GlcNAc(b1-3)GalNAc
Summary of the method: as §1

[14] = biological target: Fuc(a1-2)[GalNAc(a1-4)]Gal(b1-4)GlcNAc
Summary of the method: as §1

[15] = biological target: Fuc(a1-2)[GalNAc(b1-3)]Gal
Summary of the method: as §1

Fuc(a1-3)GlcNAc = biological target: Fuc(a1-3)GlcNAc
Summary of the method: as §1

[16] = biological target: Fuc(a1-3)[Gal(b1-4)]Glc6S
Summary of the method: as §1

[17] = biological target: Fuc(a1-3)[Gal(b1-4)]GlcNAc
Summary of the method: as §1

[18] = biological target: Fuc(a1-3)[Gal(b1-4)]GlcNAc(b1-2)Man
Summary of the method: as §1

[19] = biological target: Fuc(a1-3)[Gal(b1-4)]GlcNAc(b1-2)Man(a1-3)[Fuc(a1-3)[Gal(b1-4)]GlcNAc(b1-2)Man(a1-6)]Man(b1-4)GlcNAc(b1-4)GlcNAc
Summary of the method: as §1

[20] = biological target: Fuc(a1-3)[Gal(b1-4)]GlcNAc(b1-2)Man(a1-3)[Fuc(a1-3)[Gal(b1-4)]GlcNAc(b1-2)Man(a1-6)]Man(b1-4)GlcNAc(b1-4)[Fuc(a1-6)]GlcNAc
Summary of the method: as §1

[21] = biological target: Fuc(a1-3)[Gal(b1-4)]GlcNAc(b1-3)Gal(b1-3)[Fuc(a1-4)]GlcNAc
Summary of the method: as §1

[22] = biological target: Fuc(a1-3)[Gal(b1-4)]GlcNAc(b1-3)Gal(b1-4)[Fuc(a1-3)]GlcNAc
Summary of the method: as §1

[23] = biological target: Fuc(a1-3)[Gal(b1-4)]GlcNAc(b1-3)Gal(b1-4)[Fuc(a1-3)]GlcNAc(b1-3)Gal(b1-4)[Fuc(a1-3)]GlcNAc
Summary of the method: as §1

[24] = biological target: Fuc(a1-3)[Gal(b1-4)]GlcNAc(b1-3)GalNAc
Summary of the method: as §1

[25] = biological target: Fuc(a1-3)[Gal(b1-4)]GlcNAc(b1-6)GalNAc
Summary of the method: as §1

[26] = biological target: Fuc(a1-3)[Gal(b1-4)]GlcNAc(b1-6)[Gal(b1-3)GlcNAc(b1-3)]Gal(b1-4)Glc
Summary of the method: as §1

[27] = biological target: Fuc(a1-3)[Gal(b1-4)]GlcNAc6S
Summary of the method: as §1

[28] = biological target: Fuc(a1-3)[Gal3S(b1-4)]Glc
Summary of the method: as §1

[29] = biological target: Fuc(a1-3)[Gal3S(b1-4)]GlcNAc
Summary of the method: as §1

[30] = biological target: Fuc(a1-3)[Gal3S(b1-4)]GlcNAc6S
Summary of the method: as §1

[31] = biological target: Fuc(a1-3)[GalNAc(b1-4)]GlcNAc
Summary of the method: as §1

[32] = biological target: Fuc(a1-3)[GalNAc(b1-4)]GlcNAc6S
Summary of the method: as §1

Fuc(a1-4)GlcNAc = biological target: Fuc(a1-4)GlcNAc
Summary of the method: as §1

Fuc(b1-3)GlcNAc = biological target: Fuc(b1-3)GlcNAc
Summary of the method: as §1

Gal(a1-2)Gal = biological target: Gal(a1-2)Gal
Summary of the method: as §1

Gal(a1-3)Gal = biological target: Gal(a1-3)Gal
Summary of the method: as §1

B1: Cohesin-hDECTIN-1 (Homo sapiens) (protein)
chain: LDITSHHHHHHDDLDAVRIKVDTVNAKPGDTVRIPVRFSGIPSKGIANCDFVYSYDPNVLEIIEIEPGDIIVDPNPDKSFDTAVYPDRKIIVFLFAEDSGTGAYAITKDGVFATIVAKVKEGAPNGLSVIKFVEVGGFANNDLVEQKTQFFDGGVNVGDTTEPATPTTPVTTPTTTDDLDAASSSPCPPNWIIYEKSCYLFSMSLNSWDGSKRQCWQLGSNLLKIDSSNELGFIVKQVSSQPDNSFWIGLSRPQTEVPWLWEDGSTFSSNLFQIRTTATQENPSPNCVWIHVSVIYDQLCSVPSYSICEKKFM
glycan array binding signal (z-score) [1]: 2.46
glycan array binding signal (z-score) [2]: -0.197
glycan array binding signal (z-score) [3]: 0.046
glycan array binding signal (z-score) [4]: 0.095
glycan array binding signal (z-score) [5]: -0.383
glycan array binding signal (z-score) [6]: -0.249
glycan array binding signal (z-score) [7]: -0.348
glycan array binding signal (z-score) [8]: -0.459
glycan array binding signal (z-score) [9]: -0.382
glycan array binding signal (z-score) [10]: -0.253
glycan array binding signal (z-score) [11]: 6.29
glycan array binding signal (z-score) [12]: -0.149
glycan array binding signal (z-score) [13]: 0.187
glycan array binding signal (z-score) [14]: 4.25
glycan array binding signal (z-score) [15]: 4.83
glycan array binding signal (z-score) (Fuc(a1-3)GlcNAc): -0.147
glycan array binding signal (z-score) [16]: -0.379
glycan array binding signal (z-score) [17]: -0.311
glycan array binding signal (z-score) [18]: -0.245
glycan array binding signal (z-score) [19]: -0.301
glycan array binding signal (z-score) [20]: -0.51
glycan array binding signal (z-score) [21]: -0.336
glycan array binding signal (z-score) [22]: -0.432
glycan array binding signal (z-score) [23]: -0.212
glycan array binding signal (z-score) [24]: -0.18
glycan array binding signal (z-score) [25]: 0.362
glycan array binding signal (z-score) [26]: -0.475
glycan array binding signal (z-score) [27]: -0.678
glycan array binding signal (z-score) [28]: -0.276
glycan array binding signal (z-score) [29]: -0.146
glycan array binding signal (z-score) [30]: -0.218
glycan array binding signal (z-score) [31]: 2.03
glycan array binding signal (z-score) [32]: 1.03
glycan array binding signal (z-score) (Fuc(a1-4)GlcNAc): -0.25
glycan array binding signal (z-score) (Fuc(b1-3)GlcNAc): -0.288
glycan array binding signal (z-score) (Gal(a1-2)Gal): -0.199
glycan array binding signal (z-score) (Gal(a1-3)Gal): -0.419
